According to PubChem BioAssay AID624296 (National Center for Advancing Translational Sciences (NCATS), 2012):
The campaign covered roughly 350,000 compounds. About 9,900 (2.8%) were called active. This list was built around the results that the source calls inconclusive (neither active nor inactive); the mix of calls is not that of the screen. Calls come from the whole dose curve; as a rule, active = well fitted activation curve with a large enough effect; inconclusive = small, poorly fitted or top-dose-only effect; inactive = no such curve, though single readings can be large or run the other way. No potency is given beside an inconclusive call; the fits are too rough.

experiment: A quantitative high throughput screen for small molecules that induce DNA re-replication in MCF 10a normal breast cells.; note: nearly all actives have a fitted effect of over 50% in size; settings: MCF 10A DNA re-replication, Hoechst nuclear intensity, 48 h; series mostly up to 46.1 µM
Potency is the fitted concentration of half-maximal effect; tags give direction and shape of the fitted curve.

Question: For `CN(C)CCCNC(=S)NCCNc1nc2cc3c(cc2cc1C#N)OCO3`, which Potency is on record?
Answer: active: 20.6 µM

Question: For `COc1ccccc1NC(=O)CC1S/C(=N/N=C2\CCCc3ccccc32)NC1=O` (centres undefined), which Potency is on record?
Answer: inconclusive [activator, single point]

Question: Which Potency does the source give for `Nc1ccc2oc(-c3cccc(Br)c3)nc2c1` here?
Answer: inconclusive [activator, partial curve, poor fit]

Question: With `CN(C)c1nc(=NCc2ccco2)ss1` as the compound, how does the Potency read?
Answer: active: 20.6 µM

Question: With `Cc1ccc(Cl)cc1N1CCN(S(=O)(=O)c2ccc(-c3ccc(=O)[nH]n3)o2)CC1` as the compound, how does the Potency read?
Answer: inconclusive [activator, single point]

Question: Which Potency does the source give for `CCCCOc1ccc(NC(=O)CN2CCN(CC)CC2)cc1` here?
Answer: inconclusive [activator, single point]

Question: For `O=S(=O)(Nc1ccc(-c2nc3cccnc3s2)cc1)c1ccc(Cl)s1`, which Potency is on record?
Answer: active: 8.2 µM

Question: With `CN(C)CCNC(=O)c1cc2c(s1)-c1ccccc1OC2` as the compound, how does the Potency read?
Answer: inconclusive [activator, single point]

Question: With `O=C(Nc1ccc(O)c(-c2nc3ccccc3o2)c1)C1(c2ccc([N+](=O)[O-])cc2)CCCC1` as the compound, how does the Potency read?
Answer: inconclusive [activator, partial curve, poor fit]

Question: Which Potency does the source give for `BrC(=C\c1ccccc1)/C=N/Nc1ccc2nncn2n1` here?
Answer: inconclusive [activator, single point]

Question: With `O=C(c1nn2c(C(F)(F)F)cc(-c3cccs3)nc2c1Cl)N1CCCc2ccccc21` as the compound, how does the Potency read?
Answer: inconclusive [activator, full curve, poor fit]

Question: Which Potency does the source give for `COc1ccc(Nc2nc3ccccc3nc2-n2nc(C)cc2C)cc1` here?
Answer: active: 16.4 µM

Question: Which Potency does the source give for `O=C(NC(=S)Nc1ccc(NC(=O)c2ccccc2)cc1)c1ccc(F)cc1` here?
Answer: inconclusive [activator, single point]

Question: Which Potency does the source give for `C=CCNC(=O)/C(=C\c1cccc([N+](=O)[O-])c1)NC(=O)c1ccccc1` here?
Answer: inconclusive [activator, single point]

Question: For `O=C(Nc1cccc(NC(=O)c2ccc(-c3ccc(Br)cc3)o2)c1)c1ccccc1`, which Potency is on record?
Answer: inconclusive [activator, partial curve, poor fit]

Question: With `CC1=C(SCc2ccccc2)C(=O)c2ccccc2C1=O` as the compound, how does the Potency read?
Answer: active: 3.66 µM

Question: For `Oc1cc(NCc2cccnc2)ccc1-c1nc2ccccc2o1`, which Potency is on record?
Answer: active: 20.6 µM

Question: For `O=C1c2cccc3cccc(c23)C(=O)N1CCc1ccccc1`, which Potency is on record?
Answer: inconclusive [activator, partial curve, poor fit]

Question: For `CCOC(=O)C1CCCN(S(=O)(=O)c2ccc(Br)c(OC)c2)C1` (centres undefined), which Potency is on record?
Answer: inconclusive [activator, single point]

Question: Which Potency does the source give for `Cc1cc(Cl)ccc1NNC(=O)c1cccs1` here?
Answer: inactive

Question: Which Potency does the source give for `O=C(COc1ccc(Br)cc1)OCCN1CCCCC1` here?
Answer: inactive

Question: For `CCCCOc1ccc(C(=O)NCC(=O)NC2CCN(Cc3ccccc3)CC2)cc1`, which Potency is on record?
Answer: inactive

Question: For `C[C@H](CO)N1C[C@H](C)[C@@H](CN(C)S(=O)(=O)c2ccc(F)cc2)Oc2ccc(NC(=O)CCN3CCOCC3)cc2C1=O`, which Potency is on record?
Answer: inactive

Question: For `Cc1ccc2ncccc2c1[N+](=O)[O-]`, which Potency is on record?
Answer: inconclusive [activator, single point]

Question: Which Potency does the source give for `CC1=C(C#N)C(c2ccc3ncccc3c2)C(C#N)=C(C)N1` here?
Answer: inconclusive [activator, full curve, poor fit]

Question: For `O=c1[nH]c2cc(Br)cnc2nc1/C=C(\O)c1ccc(F)cc1`, which Potency is on record?
Answer: active: 7.31 µM

Question: Which Potency does the source give for `Cc1sc2ncnc(N=Nc3c(O)[nH]c4ccccc34)c2c1C` here?
Answer: inconclusive [activator, partial curve, poor fit]

Question: For `NC(=O)c1ccc(NC(=O)COC(=O)C2CC(=O)N(Cc3ccccc3)C2)cc1` (centres undefined), which Potency is on record?
Answer: inactive

Question: Which Potency does the source give for `Cc1ccc(NC(=O)Cn2cnc3sc(C(=O)NCc4ccco4)c(C)c3c2=O)cc1Cl` here?
Answer: inconclusive [activator, partial curve, poor fit]

Question: For `CC(C)(C)CC(=O)Nc1cc(S(=O)(=O)N2CCCCCC2)ccc1Cl`, which Potency is on record?
Answer: inconclusive [activator, full curve, poor fit]

Question: With `O=C(NC1CCCCC1)C(=S)NCCc1ccccc1` as the compound, how does the Potency read?
Answer: inconclusive [activator, partial curve, poor fit]

Question: Which Potency does the source give for `COc1ccc(/C=C2\SC(=S)N(NC(=O)c3csc4c3CCCC4)C2=O)cc1` here?
Answer: inconclusive [activator, partial curve, poor fit]

Question: With `Nc1[nH]n(-c2ccccc2)c(=O)c1N=Nc1ccc2c(c1)OCO2` as the compound, how does the Potency read?
Answer: inactive

Question: With `CCOc1ccc(C2/C(=C(\O)c3cccc(OC)c3)C(=O)C(=O)N2c2ccccn2)cc1OC` (centres undefined) as the compound, how does the Potency read?
Answer: inactive

Question: With `Cc1c(C(=O)N(C)Cc2cccc(F)c2)oc2c(Cl)cccc12` as the compound, how does the Potency read?
Answer: inconclusive [activator, single point]

Question: With `O=C(CSc1ccccn1)Nc1ccc2c(c1)C(=O)c1ccccc1C2=O` as the compound, how does the Potency read?
Answer: inconclusive [activator, single point]

Question: Which Potency does the source give for `COc1cc(OC)c(NC(=O)CCNS(=O)(=O)c2ccc3c(c2)CC(C)N3C(C)=O)cc1Cl` (centres undefined) here?
Answer: inactive

Question: For `Cc1cc(NCCCN2CCOCC2)n2ncc(-c3ccccc3)c2n1`, which Potency is on record?
Answer: inactive

Question: For `CC1(C)CC(OC(=O)c2ccccc2)CC(C)(C)N1`, which Potency is on record?
Answer: inconclusive [activator, single point]

Question: For `CCN(CC)C1CCN(C(=O)CCc2nnc(CCc3ccccc3)o2)C1` (centres undefined), which Potency is on record?
Answer: inconclusive [activator, partial curve, poor fit]

Question: For `COc1ccc(CNc2nc3ccccc3n2Cc2ccc(Cl)cc2)cc1OC`, which Potency is on record?
Answer: inconclusive [activator, single point]

Question: Which Potency does the source give for `CCOC(=O)c1ccc(NC(=O)CN(c2ccc(C)cc2)S(=O)(=O)c2c(C)nn(C)c2C)cc1` here?
Answer: inactive

Question: Which Potency does the source give for `CC12CCC(=O)N1C(C(=O)OCC(=O)Nc1ccc(C(F)(F)F)cc1)CS2` (centres undefined) here?
Answer: inactive

Question: Which Potency does the source give for `CC(C)(C)c1ccc(OCCC(=O)Nc2cccc(S(=O)(=O)NC3=NCCCCC3)c2)cc1` here?
Answer: inconclusive [activator, partial curve, poor fit]
